{"source": "PubChem BioAssay AID624414", "about": "(National Center for Advancing Translational Sciences (NCATS), 2012)", "note": "Several values for one entry are separate records, joined by “and”; a condition that tells them apart may be missing. Identical values can stand only once. About 480 (0.12%) of roughly 410,000 compounds were called active. The shares of active, inactive and inconclusive entries below differ from those in the screen. No stated cut-off is given here; in the data, active means activation above about 50%; inconclusive means mostly about 30% to 49%; inactive means weaker than that.", "data": [{"molecular_target": "Mucolipin-1 (Homo sapiens) (UniProt Q9GZU1)", "sequence (Q9GZU1 whole entry, looked up)": "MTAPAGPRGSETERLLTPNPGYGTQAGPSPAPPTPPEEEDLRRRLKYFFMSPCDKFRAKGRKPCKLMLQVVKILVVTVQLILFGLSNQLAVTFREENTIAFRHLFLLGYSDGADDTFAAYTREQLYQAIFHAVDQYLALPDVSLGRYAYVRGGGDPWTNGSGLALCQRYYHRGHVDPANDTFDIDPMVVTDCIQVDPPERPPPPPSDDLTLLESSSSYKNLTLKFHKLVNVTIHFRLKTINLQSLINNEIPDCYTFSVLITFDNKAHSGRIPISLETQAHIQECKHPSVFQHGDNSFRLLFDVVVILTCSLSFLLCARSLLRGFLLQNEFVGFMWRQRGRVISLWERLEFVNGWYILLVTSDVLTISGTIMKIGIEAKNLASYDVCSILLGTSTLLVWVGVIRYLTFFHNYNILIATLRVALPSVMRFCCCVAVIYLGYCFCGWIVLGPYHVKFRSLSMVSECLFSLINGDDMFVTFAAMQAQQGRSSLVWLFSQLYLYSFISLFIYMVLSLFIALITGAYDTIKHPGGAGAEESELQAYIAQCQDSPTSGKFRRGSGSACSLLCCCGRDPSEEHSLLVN", "assay": "qHTS for Agonists of the Human Mucolipin Transient Receptor Potential 1 (TRPML1); further: 0% is about no effect", "conditions": "TRPML1-expressing cells, Ca2+ dye fluorescence, FDSS; hits give high values", "method_in_brief": "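In this qHTS format, compounds were pin-transferred onto Ca8-dye-loaded TRPML1-DL cells induced with Tet overnight, and intracellular Ca2+ fluorescence was recorded kinetically for 110 s after a 10 s baseline. A subsequent 4uM final 54-4 (EC80) addition followed by a second 110 s read served as the antagonist phase.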", "values": [{"smiles": "Nc1c(C(=O)c2ccccc2)sc2nsc(SCCN3CCOCC3)c12", "activation": "inconclusive: 37.7%"}, {"smiles": "Cc1ccc(NC(=O)COc2ccccc2)cc1Cl", "activation": "inactive: -0.673%"}, {"smiles": "CC(=O)Nc1ccc(NC(=O)C(C)OC(=O)CC2CCCCC2)cc1", "note": "(stereo not given)", "activation": "inactive: 1.6%"}, {"smiles": "Cc1ccc(/C=C/C(=O)NCCCN2CCN(CCCNC(=O)/C=C/c3ccc(C)cc3)CC2)cc1", "activation": "inactive: 0%"}, {"smiles": "COc1ccc(S(=O)(=O)N2CC3CCCN3c3ccc(C(F)(F)F)cc32)cc1", "note": "(stereo not given)", "activation": "active: 80.1%"}, {"smiles": "Cc1ccccc1C(=O)NNC(=S)NC(=O)c1ccccc1", "activation": "inconclusive: 32%"}, {"smiles": "COc1ccccc1CN(Cc1cc2c(C)ccc(C)c2[nH]c1=O)Cc1nnnn1Cc1ccco1", "activation": "inconclusive: 39.7%"}, {"smiles": "CN(c1ccccc1)S(=O)(=O)c1ccc2[nH]c(=O)oc2c1", "activation": "inconclusive: 42.6%"}, {"smiles": "CC(C)(C)C(=O)NC(=S)NNC(=O)c1ccc(-c2ccccc2)cc1", "activation": "active: 80%"}, {"smiles": "Cc1ccc(NC(CNS(=O)(=O)c2ccc(Cl)cc2)c2ccccc2)cc1", "note": "(stereo not given)", "activation": "inactive: -0.181% and inactive: 5.87%"}, {"smiles": "COc1ccc(CNC(=O)C2CC(c3ccc(OC)cc3)=NO2)cc1", "note": "(stereo not given)", "activation": "inactive: -0.486%"}, {"smiles": "CCCCN(CCCC)Cc1ccc(C(=O)NNC(=O)Nc2ccccc2)o1", "activation": "inactive: -0.494%"}, {"smiles": "Cc1cccc(C(=O)NC(NCc2ccco2)C(Cl)(Cl)Cl)c1", "note": "(stereo not given)", "activation": "inconclusive: 41.8%"}, {"smiles": "COc1ccc(C2/C(=C(\\O)c3ccc4c(c3)CC(C)O4)C(=O)C(=O)N2Cc2cccnc2)c(OC)c1", "note": "(stereo not given)", "activation": "inactive: -0.245%"}, {"smiles": "CC(C)(C)n1nnnc1C(c1cccnc1)N(Cc1ccccc1)Cc1cccs1", "note": "(stereo not given)", "activation": "inconclusive: 30.2%"}, {"smiles": "CCC(C(=O)Nc1ccc(C(C)C)cc1)c1ccccc1", "note": "(stereo not given)", "activation": "inconclusive: 31.8%"}, {"smiles": "COc1cccc(C(c2nnnn2CCc2ccccc2)N2CCN(c3ccccc3)CC2)c1OC", "note": "(stereo not given)", "activation": "active: 87.7%"}, {"smiles": "CCOc1cc(S(=O)(=O)N2CCN(S(=O)(=O)CC)CC2)c(OCC)cc1-n1cnnn1", "activation": "inactive: -0.431%"}, {"smiles": "CC1c2cc3c(cc2CCN1C(=O)c1ccc(C(F)(F)F)cc1)OCCCO3", "note": "(stereo not given)", "activation": "inconclusive: 40%"}, {"smiles": "c1ccc2c(c1)CSc1sccc1C2=C1CCNCC1", "activation": "inconclusive: 33.9%"}, {"smiles": "c1ccc(Nc2nc(NCc3ccco3)nc3nccnc23)cc1", "activation": "inactive: 0.324%"}, {"smiles": "CCOC(=O)C(/C=C(\\C#N)C(=O)OCC)=C(/N)N1CCN(c2ccc(Cl)cc2)CC1", "activation": "active: 68.5%"}, {"smiles": "CN(C)c1ccc(C=C2C(=O)c3ccccc3C2=O)cc1", "activation": "active: 50.9%"}, {"smiles": "COc1ccccc1C(=O)Nc1ccnn1C1CCN(CCCc2ccccc2)CC1", "activation": "inactive: 0.348%"}, {"smiles": "CCCCn1nnnc1C(c1ccccc1)N1CCN(c2cccc(C(F)(F)F)n2)CC1", "note": "(stereo not given)", "activation": "inconclusive: 49.4%"}, {"smiles": "Cc1onc(-c2ccccc2)c1C(=O)NNC(=S)NC(=O)c1ccc(F)cc1", "activation": "inconclusive: 33.3%"}, {"smiles": "CCOC(=O)/C(=C\\C=C1/Sc2ccccc2N1CC)C(C)=O", "activation": "active: 88.8%"}, {"smiles": "CC(C)NC(=S)NC(c1ccccc1)(c1ccccc1)c1ccccc1", "activation": "active: 70.1%"}, {"smiles": "CCC1(C)CC(=O)c2c(ccc3oc(C(=O)Nc4ccc(C(C)=O)cc4)c(C)c23)O1", "note": "(stereo not given)", "activation": "inconclusive: 43.1%"}, {"smiles": "CCOc1ccccc1NC(=O)c1ccc(S(=O)(=O)N2CCCCC2)cc1", "activation": "inactive: 1.83%"}, {"smiles": "Clc1ccc(CN(CC2CCCO2)C(c2cccs2)c2nnnn2C2CCCC2)cc1", "note": "(stereo not given)", "activation": "active: 53.8%"}, {"smiles": "CCC(C)N1C(=O)/C(=C/c2c(NCCCOC(C)C)nc3c(C)cccn3c2=O)SC1=S", "note": "(stereo not given)", "activation": "inconclusive: 34.5%"}, {"smiles": "COCCCn1c(N)c(-c2nc3ccccc3n2C)c2nc3ccccc3nc21", "activation": "inconclusive: 30.1%"}, {"smiles": "CCOC(=O)/C(=C/C=C1\\Sc2cc(C)c(C)cc2N1CC)C(C)=O", "activation": "active: 89.8%"}, {"smiles": "Cc1ccc(S(=O)(=O)N2CC3CCCN3c3ccc(C(F)(F)F)cc32)cc1", "note": "(stereo not given)", "activation": "inconclusive: 46.6%"}, {"smiles": "CN(C)c1ccc(/C=C(\\C#N)C(=O)Nc2nc3c(s2)CCN(Cc2ccccc2)C3)cc1", "activation": "inconclusive: 44.9%"}, {"smiles": "Cc1c(CCC(=O)N2CCCCC2)c(=O)oc2cc3occ(C(C)(C)C)c3cc12", "activation": "inconclusive: 45.4%"}, {"smiles": "CCOC(=O)/C(=C\\C=C1/Sc2cc(OCC)c(OCC)cc2N1CC)C(C)=O", "activation": "active: 88.9%"}, {"smiles": "COc1cc(OC)c(/C=C/c2nccc3ccccc23)c(OC)c1", "activation": "inconclusive: 31.5%"}, {"smiles": "CCN(CC)c1ccc(/C=C2\\C(=O)c3ccc(C(=O)O)cc3C2=O)cc1", "activation": "active: 77.8%"}, {"smiles": "CCOc1ccc(N(C)c2ccc(/C=C3/SC(=S)NC3=O)cc2)cc1", "activation": "inconclusive: 37.3%"}, {"smiles": "CC(OC(=O)c1c2c(nc3ccccc13)/C(=C\\c1ccc3c(c1)OCO3)CCC2)C(=O)Nc1ccc(S(N)(=O)=O)cc1", "note": "(stereo not given)", "activation": "inconclusive: 43.9%"}, {"smiles": "O=C(CCl)Nc1cccc(S(=O)(=O)NC2=NCCCCC2)c1", "activation": "inactive: -0.383%"}, {"smiles": "CCCOc1ccc(C(=O)NNC(=S)NC(=O)c2cccs2)cc1", "activation": "active: 53.4%"}, {"smiles": "COc1cc(NC(=O)C2C3C=CC(C3)C2C(=O)O)c(OC)cc1Cl", "note": "(stereo not given)", "activation": "inactive: 0.0753%"}, {"smiles": "COc1ccccc1/C=C(/C(=O)OCC(=O)Nc1cc(C)ccc1C)c1ccccc1", "activation": "inconclusive: 33%"}, {"smiles": "O=[N+]([O-])/C=C\\c1ccc(N2CCCC2)c(F)c1", "activation": "inconclusive: 40.5%"}, {"smiles": "C/C(=N/Nc1ccc([N+](=O)[O-])cc1)c1c[nH]c2ccccc12", "activation": "inconclusive: 32%"}, {"smiles": "CCOC(=O)[C@H]1[C@H]2COc3ccc(OC)cc3[C@@H]2N2C(=O)c3cc(F)c(F)cc3NC(=O)[C@@]12C", "activation": "inactive: -0.121%"}, {"smiles": "O=C(Nc1ccc2c(c1)OCO2)c1c(F)cccc1F", "activation": "inactive: 0.921%"}, {"smiles": "Cc1ccccc1NC(=O)c1nc(S(C)(=O)=O)ncc1Cl", "activation": "inactive: -0.696%"}, {"smiles": "CN(C)c1ccc(/C=C/C=C/c2ccnc3ccccc23)cc1", "activation": "active: 52.7%"}, {"smiles": "CCN1C(=O)C(=CC=CN(C)c2ccccc2)SC1=S", "activation": "inconclusive: 33.7%"}, {"smiles": "O=C(CCCN1C(=O)/C(=C/c2ccccc2OC(F)F)SC1=S)Nc1cccnc1", "activation": "inactive: 0.607%"}, {"smiles": "CC(O)CN(CC(C)O)c1ccc2c(c1)Cc1cc([N+](=O)[O-])ccc1-2", "note": "(stereo not given)", "activation": "active: 82.5%"}]}]}
